In all, about 110,000 compounds were measured (“z-score”: median about -0.1, highest 2% from about 2 on). Some of the results follow.
The compounds below were run against Metabotropic glutamate receptor 8 (Rattus norvegicus) (UniProt P70579) (assay: rat mGluR8 modulators via GIRK flux, primary screen, cell-based, thallium flux, HTS (AID 488969)). Details: HEK293 rat mGluR8, GIRK (G protein-gated inwardly rectifying potassium channel) thallium flux, FluoZin2; at 10 µM; stronger effect = higher value; submaximal glutamate (EC20) added with thallium.
Sequence of UniProt P70579 (P70579 whole entry, looked up): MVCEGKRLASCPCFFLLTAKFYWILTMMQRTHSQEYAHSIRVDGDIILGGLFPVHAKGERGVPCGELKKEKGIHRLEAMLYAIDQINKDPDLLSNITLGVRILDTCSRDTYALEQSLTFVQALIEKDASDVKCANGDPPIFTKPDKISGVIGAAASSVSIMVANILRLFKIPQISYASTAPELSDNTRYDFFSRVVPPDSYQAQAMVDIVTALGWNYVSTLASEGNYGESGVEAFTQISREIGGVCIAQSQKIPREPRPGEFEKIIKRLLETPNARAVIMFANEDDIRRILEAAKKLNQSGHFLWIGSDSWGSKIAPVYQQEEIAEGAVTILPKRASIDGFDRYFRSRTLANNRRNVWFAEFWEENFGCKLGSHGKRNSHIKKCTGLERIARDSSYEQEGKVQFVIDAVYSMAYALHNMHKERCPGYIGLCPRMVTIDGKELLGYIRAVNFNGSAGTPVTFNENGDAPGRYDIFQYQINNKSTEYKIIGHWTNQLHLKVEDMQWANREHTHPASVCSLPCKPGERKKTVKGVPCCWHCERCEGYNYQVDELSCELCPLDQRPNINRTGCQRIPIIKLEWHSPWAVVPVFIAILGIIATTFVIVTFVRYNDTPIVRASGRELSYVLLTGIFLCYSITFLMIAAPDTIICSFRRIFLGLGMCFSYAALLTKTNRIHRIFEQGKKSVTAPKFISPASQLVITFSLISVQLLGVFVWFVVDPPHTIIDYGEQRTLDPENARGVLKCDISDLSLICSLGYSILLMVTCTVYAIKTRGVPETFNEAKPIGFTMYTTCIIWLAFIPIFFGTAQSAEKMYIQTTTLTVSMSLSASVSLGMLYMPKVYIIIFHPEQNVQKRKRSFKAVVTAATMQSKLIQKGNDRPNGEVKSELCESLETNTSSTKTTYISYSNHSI

Structure (SMILES) | z-score
CCN(CC)c1ccc(/C=N/NC(=O)OC)c(O)c1 | -0.291
COC(=O)[C@@H](NC(=O)Nc1ccc(OC)cc1)C(C)C | 1.12
Cc1nn(-c2ccccc2)c(C)c1/C=N\NS(=O)(=O)c1ccc(Cl)cc1 | 0.0428
COc1ccc(N2C(=O)C3ON(C4SC(=S)N(C)C4(C)C)C(c4ccc(Cl)cc4)C3C2=O)cc1 (configuration not stated) | 0.0166
CCOC(=O)c1ccc2nc(NC(=O)c3ccco3)sc2c1 | -0.0743
N#Cc1cc(C(=O)c2cc(F)ccc2O)cn(-c2nccs2)c1=O | -1.86
O=C(Nc1cccnc1)c1cccs1 | -0.52
Cc1ccc(S(=O)(=O)NC(C)C(=O)Nc2ccc(C(N)=O)cc2)cc1 (configuration not stated) | -0.0827
Cn1c(Cc2cccc3ccccc23)nnc1SCC(=O)N1CCN(c2cccc(Cl)c2)CC1 | -0.267
Nc1nnc(SC2CC(=O)N(c3ccccc3)C2=O)s1 (configuration not stated) | -0.766
CC(=O)c1c(C)nc(-c2ccccc2)nc1NC(=O)C(C)C | -0.0538
CCOc1cc(CNCCCN2CCOCC2)ccc1OCC(=O)Nc1cccc2ccccc12 | -0.63
Cc1ccc(C(=O)O/N=C/c2c(N3CCOCC3)n(C)c3ccccc23)cc1 | -0.0587
Cc1nc2scc(-c3cccs3)c2c(=O)n1N | -0.0936
COc1ccc(C(C)NC(=O)c2ccccc2)cc1 (configuration not stated) | 1.03
CCOc1ccccc1N1CCN(C(=O)C(Sc2ccccc2)c2ccccc2)CC1 (configuration not stated) | -0.253
CCOCCCn1c(SCC(=O)/C(C#N)=C(\C)N)nc2ccccc2c1=O | -0.243
CC(=O)Nc1ccccc1/C=C/c1ccc2c(C)cc(C)c(O)c2n1 | -0.0315
COC(=O)c1cc(Br)c(=O)n(Cc2ccc3c(c2)OCO3)c1 | 0.208
CCOc1ccc(OCC)c(NC(=O)C2CCN(S(=O)(=O)c3cccnc3)CC2)c1 | -0.513
COc1ccccc1-c1nc2n(n1)C(c1ccc(Cl)cc1)C(C(N)=O)=C(C)N2 (configuration not stated) | -1.08
COC(=O)c1c(NC(=O)c2ccccc2)sc(C(=O)c2ccccc2)c1C | 0.0535
CC(C)(O)C(=O)NN(C(=O)c1ccccc1)c1ccc2ccccc2c1 | 0.345
COc1ccc(OCCCC(=O)Nc2ccc(N3CCCCC3)cc2)cc1 | -0.122

Structure (SMILES) | z-score
C/C(=C(\C#N)C(=O)NC1CCCCC1)N(C)C | 0.22
CCOc1cc(NC(=O)c2ccco2)c(OCC)cc1NC(=O)CCC(=O)NCc1cccnc1 | -0.676
Cc1nn(-c2ccc(Cl)cc2)c2sc(C(=O)c3c(N)n(C)c(=O)n(C)c3=O)cc12 | -0.197
CCn1c(SCC(=O)c2c[nH]c3ccccc23)nnc1-c1cccs1 | -0.0833
Cc1ccc(C(=O)/C=C/Nc2ccc([N+](=O)[O-])cc2Br)cc1 | -0.31
N=C1SCC(=O)N1c1nc(-c2ccccc2)cs1 | -0.104
CN(c1ccc(OCC(=O)OCC(=O)Nc2ccccc2F)cc1)S(=O)(=O)c1cccs1 | -2.6
N#Cc1cnc2ncnn2c1-c1ccccc1 | 0.145
O=c1c2c(C(F)(F)F)cc(C(F)(F)F)nc2[nH]n1-c1ccccc1 | -0.197
CCOC(=O)c1[nH]c2cc(OC)c(OC)cc2c1NC(=O)c1ccc2c(c1)OCO2 | -0.191
COc1ccc(OCC(=O)Nc2ncc3c(n2)CC(C)(C)CC3=O)cc1 | -1.03
CCCCNC(=O)C1CC(c2ccccc2[N+](=O)[O-])=NO1 (configuration not stated) | -0.187
COc1ccc(OC(=O)c2cc(S(=O)(=O)N3CCCC3)ccc2Cl)cc1 | 0.41
C/C(CCc1ccco1)=N/NC(=O)CCC(=O)Nc1ccc(Br)cc1 | 0.8
CCOC(=O)C1CCN(C(=O)CN(c2ccc3c(c2)OCO3)S(C)(=O)=O)CC1 | -0.411
COc1ccc(OCC(O)Cn2ccnc2C)cc1 (configuration not stated) | 0.00945
CC(=O)Nc1nonc1NC(=O)c1ccc(C(C)(C)C)cc1 | -0.87
CCc1c(C(=O)NNC(=S)NCC(C)C)csc1C | 0.611
Cc1cccc(NC(=O)CN(C)S(=O)(=O)c2cccc3cccnc23)c1 | 1.29
CCOP(=O)(OCC)c1nc(-c2cccc3ccccc23)oc1N1CCOCC1 | 0.0895
Cc1cccc(NCN2C(=O)c3ccncc3C2=O)n1 | -0.316
Cn1c(CC(=O)Nc2ccccc2)nnc1SCCOc1ccccc1 | -0.232
Cn1c(N2CCCCC2)cc(=O)n(C)c1=O | -0.301
Cc1ccc(C)c2[nH]c(=O)c(CN(CCN3CCOCC3)Cc3nnnn3CC3CCCO3)cc12 (configuration not stated) | -0.292

Structure (SMILES) | z-score
COc1ccccc1Nc1nc(C)cc(=O)[nH]1 | 0.267
C/C(=N\O)c1ccc2c3c([nH]c2c1)CCCC3 | 0.355
Brc1[nH]nc2ccccc12 | 0.227
CN(C)CCCN1CC(C(=O)O)CC1=O (configuration not stated) | -0.354
Cc1ccc(NC(=O)NC(=O)CN2C(=O)NC3(CCCCCCC3)C2=O)c(C)c1 | 0.849
Cc1c(C(O)CN2CCC(C(N)=O)CC2)c2ccccc2n1C (configuration not stated) | 0.802
Cc1ccsc1/C=C1\SC(N2CC(C)OC(C)C2)=NC1=O (configuration not stated) | 0.108
COCCNC(=O)CN(C(=O)CCC(=O)Nc1ccccn1)c1ccc(F)cc1 | -0.487
O=C(O)COc1ccc2c(c1)CCCC2 | 0.421
C=CCC(NCc1ccco1)c1ccc(OC)cc1OC (configuration not stated) | -0.246
C/C(=N/NC(=O)c1ccc2c(c1)OCO2)c1cccc(NC(=O)C(C)(C)C)c1 | -0.191
COC(=O)c1sccc1NC(=O)C1CC2CCC1C2 (configuration not stated) | -0.225
CCCCC1OC23CCCCC2C(C#N)(C#N)C1(C#N)C(=N)O3 (configuration not stated) | 0.072
CO/N=C/c1ccc(Sc2ccccc2N)c([N+](=O)[O-])c1 | -0.288
CCCOc1ccc(C2NC(=O)NC2=O)cc1 (configuration not stated) | -0.976
Cc1ccc(C(=O)COC(=O)C2CC(=O)N(c3nc(-c4ccccc4)cs3)C2)cc1C (configuration not stated) | -0.0961
CC1=NN(c2ccccc2)C(=O)/C1=C\C=C1\N(C)c2ccccc2C1(C)C | -0.517
CCN1C(=O)/C(=C\c2cccn2-c2ccc([N+](=O)[O-])cc2)N(CC)C1=S | -0.411
Cc1oc2c(CN(C)C)c(O)ccc2c(=O)c1-c1ccc2ccccc2n1 | -0.0868
O=C(COc1cccc2ccccc12)NNC(=O)[C@@H]1CCCC[C@@H]1C(=O)O | -0.389
CCOC(=O)CNC(=O)CNC(=O)Cn1ccc2ccccc2c1=O | 0.806
Nc1nc(SCc2ccccc2Cl)[nH]c(=O)c1-c1ccccc1 | 0.0636
COc1ccc(-c2ncncc2-c2csc(C)n2)c(O)c1 | 1.53
CC(=O)Nc1ccc(S(=O)(=O)N(c2cccnc2)S(=O)(=O)c2ccc(NC(C)=O)cc2)cc1 | -0.206

Reference: PubChem BioAssay AID488969 (Vanderbilt High Throughput Screening Facility, 2010)
